This is one part of the list.

In this assay the test system is T1, C. trachomatis L2/434/Bu expressing GFP (CTL2-GFP).
T1 construct: L2/434/Bu GFP intracellular growth in HeLa cells
Set-up: species or system HeLa; C. trachomatis total inclusion area by high-content imaging, normalised to DMSO. Conditions: total inclusion area; 28.5 h, 10 µM; inhibitor. In short, it runs like this: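 Host cell viability was gauged from Hoechst-stained nuclei counts, while chlamydial growth was taken from total inclusion area and inclusion number per well. Cells were fixed and imaged by high-content microscopy once bulk GFP and resorufin fluorescence had been measured.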
`Cc1ccc(-n2cccn2)cc1S(=O)(=O)NCCN1CCCCC1CO` (stereo not drawn) [CBK307163]: the “% of control remaining” value is listed as 49.385.
The figure for `CCCc1ccc(OCC(=O)Nc2ccccc2C(N)=O)cc1` [CBK263103] is 83.1852; for `Cn1c(/C(C#N)=C\c2ccc(-c3ccc(S(N)(=O)=O)cc3)o2)nc2ccccc21` [CBK266380] it is 55.3019; for `Cc1c(C)n(CC(O)CNCc2ccco2)c2ccccc12` (stereo not drawn) [CBK263970G] it is 77.485.
For `C=CCn1c2cc(C)sc2c2cnn(CC(=O)OC)c(=O)c21` [CBK284166] the value was 85.8148; for `CC(=O)c1c2c(c(N3CCN(C#N)CC3)[nH]c1=S)CC(C)(C)OC2` [CBK018622], 92.0797.
The figure for `Cc1nn2c(-c3ccncc3)ccnc2c1-c1ccccc1` [CBK288548] is 76.588; for `COc1ccccc1NC(=O)C(=O)N/N=C/c1ccc(C(=O)O)cc1` [CBK262148] it is 103.241; for `CCOC(=O)C1CCN(C(=O)Nc2cc(C)on2)CC1` [CBK306280] it is 63.5657.
On to `O=C(/C=C/c1ccc(F)cc1)NCCc1ccc(S(=O)(=O)N2CCCC2)cc1` [CBK265227], for which the “% of control remaining” value was found to be 116.087.
For `CC(=O)N1CC(C(=O)Nc2ncc(-c3ccccc3)n2C)C1` [CBK281373] the value was 90.8555.
The figure for `Nc1ncnc(Nc2ccc(Nc3ccccc3)cc2)c1[N+](=O)[O-]` [CBK267347] is 132.802.
In the case of `Cn1c(CO)nnc1[C@H]1C[C@@H](NC(=O)COc2ccc(Cl)c(Cl)c2)C1` [CBK306667], the “% of control remaining” value is 89.9828.
As to `CCc1nnsc1C(=O)Nc1nn(C)c2cccc(N3CCOCC3)c12` [CBK307671], the “% of control remaining” value was determined as 78.4733.
For `O=C(Nc1ccc(N2CCN(Cc3ccccc3F)CC2)cc1)c1cc2ccccc2o1` [CBK267210] the value was 115.458; for `Cc1cc(S(=O)(=O)NCc2cc(F)c(F)c(F)c2)c(C)cc1Cl` [CBK043813], 100.665.
As for `CCNC(=O)Nc1ccc2ccc(-c3ccsc3)nc2n1` [CBK070699], the “% of control remaining” value was determined as 60.0014.
The figure for `Cc1nc([N+](=O)[O-])c(NCCO)n1Cc1ccccc1` [CBK261422] is 112.176.
`N#Cc1nc(=O)[nH]cc1N` [CBK021411]: the “% of control remaining” value is 81.9913.
`Cn1cnnc1C1CCN(C(=O)CC2OCCc3sccc32)CC1` (stereo not drawn) [CBK304912]: the “% of control remaining” value is 79.5943.
For `Cc1ccc(N(CC(=O)Nc2cccc3ccccc23)S(=O)(=O)c2ccc(F)cc2)cc1` [CBK262707] the value was 86.4915; for `CCOC(=O)c1c(NC(=O)CSc2n[nH]c(N)n2)sc2c1CCCCC2` [CBK266569], 103.859; for `CN(CC(=O)Nc1cccc(Cl)c1)S(=O)(=O)c1ccc2ccccc2c1` [CBK266746], 114.938.
For `COC(=O)c1c(C)n(CCCNc2ccc([N+](=O)[O-])cc2Cl)c2ccc(O)cc12` [CBK268363], the “% of control remaining” value came to 111.452.
For `CC(=O)Nc1ccc(NC(=O)COc2c(C)cc(Br)cc2C)cc1` [CBK267321], the “% of control remaining” value is reported as 110.57.
The figure for `COC(=O)[C@H]1CN(C(=O)CN2CCCC2=O)C[C@@H]1c1ccccc1F` [CBK283518] is 113.759; for `O=C(O)c1ccc2c(c1)C(=O)N(c1ccc(C3(c4ccc(N5C(=O)c6ccc(C(=O)O)cc6C5=O)cc4)c4ccccc4-c4ccccc43)cc1)C2=O` [CBK261195] it is 90.5261.
The figure for `CCn1c(SCC(=O)NC(=O)NC2CCCCC2)nc2ccccc21` [CBK306037] is 99.9258.
The figure for `c1csc(-c2cncc(NCCc3ccncc3)n2)c1` [CBK065797] is 98.6988; for `CCn1cc(NC(=O)CC(C)(O)c2ccccc2)ccc1=O` (stereo not drawn) [CBK304507] it is 25.3599.
Consider `O=C(O)CN(c1ccc([N+](=O)[O-])cc1)S(=O)(=O)c1ccccc1` [CBK263782], for which the “% of control remaining” value is reported as 97.9272.
The figure for `COCC(O)CN(C)c1nc(-c2ccncc2)nc2ccccc12` (stereo not drawn) [CBK305170] is 72.3703.
The figure for `CC(=O)N1CCN([C@H]2[C@@H]3OC[C@@H](O3)[C@@H](NC(=O)NC3CCCCC3)[C@@H]2O)CC1` [CBK288810] is 118.922; for `CC(C)c1nnc(NC(=O)CC2CCN(C(=O)C3(c4ccccc4)CCCC3)CC2)s1` [CBK285905] it is 103.356; for `COC(=O)c1cccc(OCCn2c(=O)c(C#N)cn(C3CC3)c2=O)c1` [CBK305990] it is 89.3216.
The figure for `O=C(Nc1cc(Oc2ccc(F)cc2)cc(Oc2cccnc2)c1)c1nn2c(C(F)(F)F)cc(-c3cccs3)nc2c1Cl` [CBK262568] is 111.816; for `CCC1Oc2ccc(C(O)c3ccco3)cc2N(Cc2cccc(OC)c2)C1=O` (stereo not drawn) [CBK286190] it is 106.39; for `OCCN(CCO)c1nccnc1-c1ccccc1F` [CBK036610] it is 118.444.
Consider `Cc1cccc(NC(=O)C(Cc2ccccc2)C(=O)Nc2cccc(C)c2)c1` [CBK266899], for which the “% of control remaining” value is 106.543.

The values above are taken from paper PMC12040169 (PLOS Biology, 2025).
